In PubChem BioAssay AID504332 (National Center for Advancing Translational Sciences (NCATS), 2011):
About 31,000 (8.9%) of roughly 350,000 compounds were called active. The shares of active, inactive and inconclusive entries below differ from those in the screen. Calls come from the whole dose curve; as a rule, active = well fitted inhibition curve with a large enough effect; inconclusive = small, poorly fitted or top-dose-only effect; inactive = no such curve, though single readings can be large or run the other way. A potency beside an inconclusive call is a rough fit, not a confirmed value.

The molecules below were run against Histone-lysine N-methyltransferase EHMT2 (Homo sapiens) (UniProt Q96KQ7) (assay: qHTS Assay for Inhibitors of Histone Lysine Methyltransferase G9a). Settings: G9a H3K9 monomethylation, AlphaScreen, 2 h; activity, negative = inhibition: at 59 µM (top of the series) unless noted.
Summary of the method: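 Compounds were preincubated with 20 nM G9a for 15 min, after which biotinylated H3K9 peptide (500 nM) and SAM (20 uM) started a 2 h room-temperature reaction. Monomethylated product was quantified by antibody-based AlphaScreen chemiluminescence.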
% is set by controls: 0 for no effect and ±100 for the full control effect; potency is the fitted concentration of half-maximal effect; tags give direction and shape of the fitted curve.
Note: nearly all actives have a fitted effect of over 75% in size.

Chain of UniProt Q96KQ7 (Q96KQ7 whole entry, looked up): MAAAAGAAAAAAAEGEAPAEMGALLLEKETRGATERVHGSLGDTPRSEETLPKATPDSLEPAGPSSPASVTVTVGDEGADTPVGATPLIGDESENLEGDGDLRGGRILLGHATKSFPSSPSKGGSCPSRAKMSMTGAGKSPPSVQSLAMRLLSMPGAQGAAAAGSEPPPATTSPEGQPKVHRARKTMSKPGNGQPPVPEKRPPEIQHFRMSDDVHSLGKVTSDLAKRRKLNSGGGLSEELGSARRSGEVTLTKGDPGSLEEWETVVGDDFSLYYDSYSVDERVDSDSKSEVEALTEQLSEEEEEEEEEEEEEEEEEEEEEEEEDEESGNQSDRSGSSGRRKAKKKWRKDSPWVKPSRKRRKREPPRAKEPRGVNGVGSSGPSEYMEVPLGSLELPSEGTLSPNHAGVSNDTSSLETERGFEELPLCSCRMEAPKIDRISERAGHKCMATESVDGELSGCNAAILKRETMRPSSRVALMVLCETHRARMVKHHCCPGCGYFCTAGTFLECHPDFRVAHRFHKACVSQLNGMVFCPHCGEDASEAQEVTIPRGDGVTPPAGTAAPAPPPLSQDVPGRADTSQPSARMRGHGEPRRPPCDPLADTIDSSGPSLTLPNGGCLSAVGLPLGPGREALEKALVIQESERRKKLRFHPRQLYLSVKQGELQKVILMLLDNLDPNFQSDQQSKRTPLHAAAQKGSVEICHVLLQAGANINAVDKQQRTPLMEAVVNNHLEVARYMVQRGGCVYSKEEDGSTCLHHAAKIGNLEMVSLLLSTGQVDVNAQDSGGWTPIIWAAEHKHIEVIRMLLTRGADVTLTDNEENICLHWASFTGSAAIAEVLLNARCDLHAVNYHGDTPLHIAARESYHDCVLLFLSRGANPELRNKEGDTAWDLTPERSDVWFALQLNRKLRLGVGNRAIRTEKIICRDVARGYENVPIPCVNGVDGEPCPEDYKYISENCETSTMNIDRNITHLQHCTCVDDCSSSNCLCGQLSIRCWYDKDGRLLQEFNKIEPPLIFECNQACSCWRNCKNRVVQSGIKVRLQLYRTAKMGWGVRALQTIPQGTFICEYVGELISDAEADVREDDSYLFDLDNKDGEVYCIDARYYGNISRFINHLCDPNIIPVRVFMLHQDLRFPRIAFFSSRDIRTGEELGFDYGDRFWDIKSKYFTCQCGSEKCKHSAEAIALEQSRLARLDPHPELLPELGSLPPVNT

Row | Compound | Potency | activity, negative = inhibition
1 | CCc1ccc(NC(=O)CCCN2C(=O)C3CC=CCC3C2=O)cc1 (centres undefined) | inconclusive: 50.1 µM [inhibitor, partial curve] | –
2 | COc1ccc(C(N)=S)c(OC)c1 | active: 8.91 µM | –
3 | C=Cc1ccc(CSc2cc(C)nc3nc(C)nn23)cc1 | inconclusive: 31.6 µM [inhibitor, partial curve, poor fit] | –
4 | CCN1CCN(C(CNS(=O)(=O)c2ccc(Cl)cc2)c2cccnc2)CC1 (centres undefined) | active: 79.4 µM | –
5 | Cc1cc(Cl)ccc1OCC(=O)NCCOC(=O)Nc1sc(=S)n(C)c1C | inconclusive: 79.4 µM [inhibitor, single point] | –
6 | CCCCOC(=O)CCc1nc2ccccc2[nH]1 | inconclusive: 89.1 µM [inhibitor, single point] | –
7 | CCN(CC)CCCn1c(=S)[nH]c2cc(Cl)ccc2c1=O | – | inconclusive: -72.8% [inhibitor]
8 | Cc1ccc(OCCCn2ccnc2)c([N+](=O)[O-])c1 | inconclusive: 31.6 µM [inhibitor, single point] | –
9 | Nc1ccc2[nH]ncc2c1 | inconclusive: 2.51 µM [inhibitor, partial curve, poor fit] | –
10 | CCc1cc(C(=O)c2ccc(OC)cc2)c(N)s1 | inconclusive: 35.5 µM [inhibitor, single point] | –
11 | O=C(CN1C(=O)C(=O)N(Cc2ccccc2)C1=O)Nc1cc(Cl)cc(Cl)c1 | inconclusive: 79.4 µM [inhibitor, partial curve, poor fit] | –
12 | COC(=O)c1cccc(NC(=O)CN2CCC(NC(=O)c3cc(OC)c(OC)c(OC)c3)CC2)c1 | inactive | –
13 | O=C(C1CCCC1)N1CCC(CC2CC(c3cccc(Br)c3)=NO2)(C(=O)NCC2CCCCC2)CC1 (centres undefined) | inconclusive: 89.1 µM [inhibitor, single point] | –
14 | COc1ccc(CCNc2c3ccccc3nc3ccccc23)cc1OC | inconclusive: 56.2 µM [inhibitor, partial curve] | –
15 | COc1ccccc1-n1c(SCC(=O)NCc2ccc3c(c2)OCO3)nc2cc([N+](=O)[O-])ccc21 | inconclusive: 25.1 µM [inhibitor, single point] | –
16 | CCOc1ccc(CC(=O)Nc2c(C(=O)c3ccccc3)oc3ccc(OC)cc23)cc1OCC | inactive | –
17 | COc1ccccc1N1CCN(C(=O)c2ccc3[nH]c4c(c3c2)CC(C)CC4)CC1 (centres undefined) | inconclusive: 20 µM [inhibitor, single point] | –
18 | CCc1nc(SCc2ccccc2C#N)n[nH]1 | inactive | –
19 | COc1cc(CN2CCNC(=O)C2CC(=O)N(C)CCCN2CCOCC2)cc(OC)c1 (centres undefined) | inconclusive: 56.2 µM [inhibitor, partial curve, poor fit] | –
20 | CC(CN1CCN(C)CC1)OC(=O)c1cccc(Cl)c1 (centres undefined) | – | inconclusive: -88.7% [inhibitor]
21 | COCCOC(=O)c1c(-c2ccccc2)c(-c2ccccc2)nn(C)c1=O | inconclusive: 31.6 µM [inhibitor, partial curve, poor fit] | –
22 | COc1ccc(NC(=O)C2CCCN(c3nnc(C)c4c(C)n(-c5ccccc5)nc34)C2)cc1Cl (centres undefined) | inconclusive: 25.1 µM [inhibitor, single point] | –
23 | Cc1cccc(CCN=c2c([N+](=O)[O-])nn(-c3ccccc3)n2O)c1 | inconclusive: 10 µM [inhibitor, full curve, poor fit] | –

Row | Compound | Potency | activity, negative = inhibition
24 | COc1ccccc1/C=C(/NC(=O)c1ccccc1)C(=O)NCCCn1ccnc1 | inactive | –
25 | O=c1nc2ccccc2c2n1CC(CN1CCN(C(c3ccccc3)c3ccccc3)CC1)N2 (centres undefined) | – | inconclusive: -73.3% [inhibitor]
26 | Cc1ccccc1/C=N/Nc1nc2ccccc2[nH]1 | inactive | –
27 | CCCC(CCC)C(=O)NC1CC(=O)N(c2ccc3c(c2)OCCO3)C1 (centres undefined) | inactive | –
28 | Cc1oc(-c2ccc(Cl)cc2)nc1CN1CCCN(C(=O)c2ccco2)CC1 | inconclusive: 89.1 µM [inhibitor, single point] | –
29 | O=C(Nc1nnc(S(=O)(=O)N2CCc3ccccc32)s1)c1cccc(Cl)c1 | inactive | –
30 | COc1cccc(NC(=O)CN(C)C(C)C(=O)NC(=O)NC2CCCCC2)c1 (centres undefined) | inactive | –
31 | CCCCC(=O)Nc1ccc(C(=O)NN2C(=O)c3ccccc3C2=O)cc1 | inconclusive: 89.1 µM [inhibitor, partial curve, poor fit] | –
32 | CCC(C)(C)n1nnnc1CN(Cc1cc2cc(OC)c(OC)cc2[nH]c1=O)C1CCCC1 | inconclusive: 3.16 µM [inhibitor, partial curve, poor fit] | –
33 | COc1ccc(CCN2CC(C(=O)NCc3c(C)n[nH]c3C)CCC2=O)cc1 (centres undefined) | inconclusive: 15.8 µM [inhibitor, partial curve] | –
34 | COc1ccc(NC(=O)CSc2nnc(-c3cccs3)n2Cc2ccco2)cc1OC | inconclusive: 89.1 µM [inhibitor, single point] | –
35 | Cc1ccc(C)c(N2CCN(C(=O)c3cnn(-c4ccccc4Cl)c3C3CCN(C(=O)OC(C)(C)C)CC3)CC2)c1 | inactive | –
36 | O=C1OC(C(=O)Nc2cc(C(F)(F)F)ccc2Cl)Cc2ccccc21 (centres undefined) | inactive | –
37 | O=C(NNC(=S)Nc1ccc(Cl)cc1)c1ccccc1OC(F)F | inconclusive: 8.91 µM [inhibitor, partial curve, poor fit] | –
38 | Cc1snc(S(=O)(=O)/C(C#N)=N/Nc2cccc(C(F)(F)F)c2)c1C#N | active: 14.1 µM | –
39 | Cc1ccc[n+](-c2nc([O-])sc2/C=N/Nc2ccc([N+](=O)[O-])cc2)c1 | active: 11.2 µM | –
40 | O=C(CSc1nc(-c2ccc(F)cc2)[nH]c1-c1ccc(F)cc1)Nc1ccc2c(c1)OCCO2 | inactive | –
41 | Cc1ccc(NCc2n[nH]c(=S)n2-c2ccccc2)cc1Cl | active: 22.4 µM | –
42 | Cc1ccc(C(=O)NCCSc2c(C)[nH]c3ccccc23)cc1[N+](=O)[O-] | active: 50.1 µM | –
43 | CCN(CC)c1ccc(NC(=O)C2CCN(S(=O)(=O)c3cnc[nH]3)CC2)c(C)c1 | active: 11.2 µM | –
44 | O=C(Nc1ncc(Cc2ccccc2)s1)c1cccs1 | inconclusive: 89.1 µM [inhibitor, single point] | –
45 | Cc1ccc(NC(=O)C2CC(=O)N(c3ccc(OC(C)C)cc3)C2)cc1 (centres undefined) | inactive | –
46 | COC(=O)Cn1c(C)c(C(C)=O)c(C(C)=O)c1C | inconclusive: 89.1 µM [inhibitor, partial curve, poor fit] | –

Row | Compound | Potency | activity, negative = inhibition
47 | COc1ccccc1Nc1nc(C)c(C(=O)Nc2ccccc2)s1 | active: 50.1 µM | –
48 | O=C(COC(=O)c1cccc(S(=O)(=O)N2CCN(c3ccccc3)CC2)c1)NCc1ccco1 | active: 44.7 µM | –
49 | Cc1ccccc1/C=N/NC(=O)c1cccnc1 | inconclusive: 22.4 µM [inhibitor, single point] | –
50 | CCN(CC(=O)NCc1ccc(Cl)cc1)C(=O)COc1cccc(C(F)(F)F)c1 | inactive | –
51 | CCN1CCc2c(C#N)c(N3CCCCC3)nc(N3CCOCC3)c2C1 | inconclusive: 56.2 µM [inhibitor, partial curve, poor fit] | –
52 | CCn1c(CNC(=O)c2cccs2)nnc1SCC(=O)NCCc1ccccc1 | inconclusive: 70.8 µM [inhibitor, partial curve, poor fit] | –
53 | CCn1c(SCC(=O)c2ccc(F)cc2)nnc1-c1ccoc1C | – | inactive: -36.5% [at 12.7 µM]
54 | COc1cccc(C(=O)Nc2ccc3oc(-c4cccc5c(Br)cccc45)nc3c2)c1 | inactive | –
55 | Cc1ccc(C)c(NS(=O)(=O)c2c(C)[nH]c(C)c2C(=O)N2CCCCC2)c1 | inconclusive: 89.1 µM [inhibitor, single point] | –
56 | CS(=O)(=O)N1CCc2cc(-c3csc(NC(=O)Cc4ccccc4)n3)ccc21 | active: 14.1 µM | –
57 | O=C(Cc1ccccc1)NC(c1ccco1)c1c(O)ccc2ccccc12 (centres undefined) | active: 50.1 µM | –
58 | Cc1cc(C)n(-c2nc(NCC(C)O)c3c4c(sc3n2)CCCC4)n1 (centres undefined) | inconclusive: 2.51 µM [inhibitor, full curve, poor fit] | –
59 | O=C(Nc1ccc2oc(-c3cccnc3)nc2c1)c1ccc2c(c1)OCCO2 | active: 14.1 µM | –
60 | CC(=O)c1ccc(NC(=O)CNc2cc(S(=O)(=O)N3CCOCC3)ccc2N2CCCC2)cc1 | active: 35.5 µM | –
61 | CCCOc1ccc(C2C(=O)N(C3CCCCCC3)CC(=O)N2CCC)cc1OC (centres undefined) | inactive | –
62 | CN1CCN(c2nc3ccccn3c(=O)c2/C=C(\C#N)S(=O)(=O)c2ccc(Cl)cc2)CC1 | inconclusive: 56.2 µM [inhibitor, partial curve] | –
63 | Nc1cc(N2CCCCC2)c(Cl)cc1[N+](=O)[O-] | inconclusive: 22.4 µM [inhibitor, single point] | –
64 | CN(C)S(=O)(=O)c1ccc(C(=O)NCCSc2c(-c3ccc(Cl)cc3)[nH]c3ccccc23)cc1 | inconclusive: 3.98 µM [inhibitor, single point] | –
65 | Cc1ccc(-c2cc(C(=O)Nc3cc(C(=O)O)ccc3C)c3ccccc3n2)cc1 | inconclusive: 50.1 µM [inhibitor, partial curve, poor fit] | –
66 | COc1ccc(N2CCN(C(=O)CCc3c(C)nc4cc(-c5ccc(OC)cc5OC)nn4c3C)CC2)cc1 | inconclusive: 22.4 µM [inhibitor, partial curve, poor fit] | –
67 | CC1Cc2cc(/C(O)=C3/C(=O)C(=O)N(CCCn4ccnc4)C3c3ccc(F)cc3)ccc2O1 (centres undefined) | active: 44.7 µM | –
68 | CCOC(=O)c1sc(=S)n(-c2ccccc2)c1N | inconclusive: 25.1 µM [inhibitor, single point] | –
69 | CCOC(=O)N1CCN(c2ccc(S(=O)(=O)N(Cc3ccccc3)Cc3ccccc3)cn2)CC1 | inconclusive: 70.8 µM [inhibitor, partial curve, poor fit] | –
